The supplement of paper PMC11417369
This is one part of the list.

These sequences were tested on PF3D7_0420300 AP2 domain 1 (GST-tagged) (assay: gcPBM binding intensity (ln(normalized median fluorescence intensity)); higher = stronger DNA binding).
Summary of the method: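 The binding buffer was 1× PBS containing 1% milk, 0.2 mg/ml BSA, 0.5% salmon testes DNA and 0.03% Triton X-100. In it, GST-tagged P. falciparum DNA-binding domains expressed in E. coli were applied for 1 h to an Agilent 4 × 180k array of primer-extended double-stranded 36-bp intergenic genomic probes plus negative controls. Binding intensity, read with Alexa488 anti-GST antibody and a 488 nm scan, is the highest Masliner-normalised natural-log median intensity across replicate spots of either probe orientation.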

| Sequence | gcPBM binding intensity (ln) |
| --- | --- |
| GAAAAAATTTTATGGTGTACTTTATTTATTTATATA [XGTACX_site6323] | 9.4 |
| TTTTTTTTTTTCTTAGTGCGCGTGAAAAATATAAAA | 8.75 |
| AATTAGATTATGCACACACACTTAAAAATAATAAAT [CACACA_site7015] | 9.81 |
| TTACTCAAACAAACAAAAAAAAAAAAAAAAAAAAAA [TGCATGCA_negctrl_site457] | 8.48 |
| ATATATAGAATGTGTACACACATATGTATTTATATA [CACACA_site810] | 9.51 |
| ATTTTTTATGGACAAAAGACCTCTGATGTAAATATA [CACACA_negctrl_site1081] | 8.97 |
| TACTATAACGCACATACACACAAAAAAAAAAAAAAA [CACACA_site8073] | 9.45 |
| TATATATATATTTTTGCATGTAATTTTTATGAGGAC [TGCATGCA_site884] | 9.13 |
| ATATGGTGATATAGGTGTACATTTTGATGCTTATTT [XGTACX_site4283] | 9.5 |
| TTATACATGAAATATTGTACACATATATATATATAT [XGTACX_site4378] | 9.22 |
| TATGAATATTTGTATACATGCATATAGAAATCATAT [TGCATGCA_site533] | 9.13 |
| ATATATTATATATATATATATATATATTATTATTGT [TGCATGCA_negctrl_site286] | 9.18 |
| TGCATTATTTACAAGGTGCGTTACAAATGTGTAACA [GTGCAC_site9442] | 9.11 |
| GCTTTAATCTGAAAGTGTACAGATAATATATTTATA [XGTACX_site2462] | 9.02 |
| GATAAATGTATATATGCATGCACATATATTTATACA [TGCATGCA_site748] | 9.33 |
| TATTTGTAATATTATACACACATTATATATTACAAA [CACACA_site5804] | 9.31 |
| ATTTAAATAACGTATGTATATACATATATATATATA [TGCATGCA_negctrl_site207] | 9.15 |
| CGTAGCCACACTAACACACACAAATATACACAATCA [CACACA_site7379] | 9.78 |
| TATTTTGTATATAAATGTACAAGTATATATTTTTTC [XGTACX_site7855] | 9.02 |
| CACGCGCCCGGACACACACACACACCCATATATATA [CACACA_site5251] | 10.2 |
| GAATAAATATTAAATGTGCACTTGAATAGATGTAAA | 9.26 |
| TTTTTCATCATATGTTGTACAATGTGTAGATATATT [XGTACX_site3195] | 9.32 |

| Sequence | gcPBM binding intensity (ln) |
| --- | --- |
| AGATACGATTATATGCGTTCAATATACCAAATAATT [TGCATGCA_negctrl_site501] | 9.24 |
| CTTTGTGTTAAAAGTAGTACACCAAAAATATGACTT [XGTACX_site622] | 9.26 |
| TAGTTAACAAATAATGCACACAAATGGATAAAATTA [CACACA_site9240] | 9.59 |
| ATTCAAATTGTAGAAACACACAAAAACTTAACATAT [CACACA_site2617] | 9.58 |
| CATATGATATGTTATACACACACGTATATATGAATT [CACACA_site3446] | 9.62 |
| AAGGGAAAATTAAGGTTGCACTAAAAATATATCTTT [GTGCAC_site9608] | 9.12 |
| ATGAACATACAATATACACACATATATATTTATATT [CACACA_site4609] | 9.71 |
| AAGAGAAATTATAACATGTGAAATGTATTATATATA [TGCATGCA_negctrl_site254] | 9.25 |
| ATTTATATATAATATACACACATATAATCCACATAT [CACACA_site699] | 9.69 |
| TAAGTATAATATTGATGTACATATAATAACTTGTAT [XGTACX_site417] | 9.26 |
| AAAAATAAAAAAATGACACACATATATATATATATA [CACACA_site2307] | 9.6 |
| TATCTCTTATTTTATTGTACTTAACTATGCTATAAT [XGTACX_site4904] | 9.4 |
| AAAAAAAATTATATATGTACTTATTAATCCTTATAT [XGTACX_site1389] | 9.15 |
| TATTTCAAAAAAAAAAAAAATAAAAAACAACAACAA [CACACA_negctrl_site893] | 9.43 |
| ATTTATATATCGCCCACACACATGTGATTATTTATA [CACACA_site6905] | 9.85 |
| TACTACTATCTATATTGTACAAAAGGTGCCTACAAA [XGTACX_site4267] | 9.15 |
| TCTATTCAAAATAAAAGTACTAGCATGTGAATTGTT [XGTACX_site5530] | 9.13 |
| TACAAGTTTTTAAAGTGTACCAAAAAAAAAGAATAA [XGTACX_site979] | 9.02 |
| TTCATTTATTTACTTACACACTTTATATATGTGGTT [CACACA_site4901] | 9.68 |
| ATATATAAAATATACACACATACTGTTCATTTAAAG [CACACA_site4169] | 9.5 |
| AATTATATTCTATTCACACATATTCCAACCTCTTTT [CACACA_site4670] | 9.59 |
| TGAAAGAACCTGATTACACACATAAATTATATATAT [CACACA_site26] | 9.54 |

| Sequence | gcPBM binding intensity (ln) |
| --- | --- |
| TTTGATGGTACACGTACACACCTTGCAAATATTTTT [CACACA_site4645] | 9.46 |
| AAAAGATAATTATGCACACACACACCCAGACACAAC [CACACA_site5428] | 10.1 |
| TGTATGTTGTAAAATTGTACATATATATTATATTTA [XGTACX_site4883] | 9.28 |
| ATGAATATAATAAAGAAACACACGTATACATAATGA [CACACA_site1355] | 9.75 |
| AGTTCTTCGTACCAAAAAACGGCACGCATATGTATA [TGCATGCA_negctrl_site469] | 9 |
| TGTATTCATACATGCACACGTACATATTTAAATATA [CACACA_site3926] | 9.3 |
| AAAAATGAAAGGTGTACACATACAAACATAGAAAGA [CACACA_site5020] | 9.84 |
| AAAATTTATATAGGCACACAAATAAATTAATACATA [CACACA_site1418] | 9.39 |
| TTTTTTTTTTTTTGGTGTACTTTTTTTAGAACGCAA [XGTACX_site4207] | 8.86 |
| TTTTTTCTTTCTTTCAAACACACATTAATTTTATTC [CACACA_site2733] | 9.41 |
| ATTCTACACCCACATACACACATATATATATATATA [CACACA_site3426] | 9.84 |
| TGTTCAAATTTATTCGATCTTTATATTTAATAAAAC [CACACA_negctrl_site781] | 9.03 |
| ATATTAGAAATATGAATAGAAAGAATATATAAGTAT [CACACA_negctrl_site682] | 9.38 |
| AGATACTTTCCTCAAACACACAAAACTATACAACAA [CACACA_site1474] | 9.45 |
| ATTCAGTTCTATAATACACACATATATTGACATTAT [CACACA_site7309] | 9.56 |
| ATATTCTTCTAAAGGCGTACATCTACATTTATGAAA [XGTACX_site2145] | 9.07 |
| GTTAGCTCGTTCGGAGCACACACATATATATATATA [CACACA_site8595] | 9.45 |
| ATCCTACTATGTTATACACACAATTACTTTTTTCTC [CACACA_site3712] | 9.86 |
| ATATGTAAAACTTCAAAAAAATATATTTTATGACGA [GTGCAC_negctrl_site324] | 9.15 |
| TTACAACAGAATGGTATTTTTTTATTTTAAAGAAAA [TGCATGCA_negctrl_site230] | 8.72 |
| AATATTTATGTGAAGACACACAACTGTTTATTATAT [CACACA_site3447] | 9.48 |
| TTATATGCTCAATGTTGTACATGTAGATATATATAT [XGTACX_site8211] | 9.13 |

| Sequence | gcPBM binding intensity (ln) |
| --- | --- |
| ATATATATATATAGTGCACACATATAAAATATATAT [CACACA_site8884] | 9.38 |
| ATCTGTCGACAGGACAGTACACAGTAGCCAGTAACT [XGTACX_site2001] | 9.23 |
| AAGTATGTCGACTGTTGTACTTTTATCATTTATTAT [XGTACX_site1129] | 9.45 |
| ATATACTATGATAATACATGCGATAATACATTTTTA [TGCATGCA_site387] | 9.23 |
| GTATGGCGTATCATATGTACTAAAAAAAAATAAAAA [XGTACX_site5101] | 8.9 |
| TATTTATCATCATATTGTACATTATATATATAAAAT [XGTACX_site6675] | 9.15 |
| AATAAAAAAATGTCACGTACTTATTTTATTAAACCT [XGTACX_site3031] | 9.15 |
| ATGGAAATATATACATGTACATAAATATATATATAT [XGTACX_site8391] | 9.33 |
| ATGTTTTGCATATATTATATATTTATTTATTTTTTT [CACACA_negctrl_site729] | 9.35 |
| AGTGGACTTTTTTTTTTTTTTTTTTTTTTTTTATTA [CACACA_negctrl_site547] | 9.2 |
| AGTAGTCTGGAGAAGAGTACATAGTATCTGGTAACC [XGTACX_site2043] | 9.2 |
| AGAGAGATGACAAAAAGATGAATAACGTTAAGGGAT [XGTACX_negctrl_site120] | 9.91 |
| TATTTATTGTGATACTTATATTATTTTATGATTAAA [CACACA_negctrl_site901] | 9.07 |
| ATAAAATATAGATGCACACACATATAGATTTCATAC [CACACA_site7636] | 9.81 |
| TGTATATTTTTTATTACACACTTTTTACTTTTTAGA [CACACA_site3069] | 9.38 |
| TTTTTTAATTGTGATACGTATATTATTTAATGATAA [GTGCAC_negctrl_site704] | 9.13 |
| AGTATATACACGTGCGTGCACAGATATTCTTTTTTT [GTGCAC_site9398] | 9.3 |
| GATATAATTATATTATGGTGTTTTTGATAGATATTT [GTGCAC_negctrl_site313] | 9.37 |
| ATCAAACCATAAAAGAGTACAAAAGGATGATATTTT [XGTACX_site8883] | 9.43 |
| TATTTTAAAGAGAAAACATGCATTATATAGAACATT [TGCATGCA_site328] | 9.21 |
| ATATAAATAAAATATACACACATACTGTTCATTTAA [CACACA_site7880] | 9.48 |
| TTTTTTTTTTATTTTGCACACTTCTAATTTAGTTCT [CACACA_site5828] | 9.45 |
